Reference: PubChem BioAssay AID485360 (National Center for Advancing Translational Sciences (NCATS), 2010)
In all, about 230,000 compounds went through this assay and about 1,500 (0.65%) were called active. This list was built around the results that the source calls inconclusive (neither active nor inactive); the mix of calls is not that of the screen. Calls follow the shape of the dose curve; as a rule, active = well fitted inhibition curve with a large enough effect; inconclusive = small, poorly fitted or top-dose-only effect; inactive = no such curve, though single readings can be large or run the other way. A potency beside an inconclusive call is a rough fit, not a confirmed value.

What follows are compounds tested against Lethal(3)malignant brain tumor-like protein 1 (Homo sapiens) (UniProt Q9Y468) (assay: qHTS Assay for the Inhibitors of L3MBTL1). Conditions: AlphaScreen L3MBTL1–H3K9me1 peptide binding; activity, negative = inhibition: at 57.1 µM (top of the series).
Procedure, shortened: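 First, the protein-peptide complex forms for 30 min at room temperature (L3MBTL1 50 nM, biotinylated H3K9me1 peptide 75 nM). Next, compounds are pin-transferred and incubated 30 min. Finally, AlphaScreen beads are added and read after 30 min.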
% is scaled to controls: 0 for no effect and ±100 for the full control effect; potency is read from the fitted curve at half-maximal effect; tags tell the direction and shape of the fitted curve.
Also: nearly all actives have a fitted effect of over 60% in size.

Chain of UniProt Q9Y468 (Q9Y468 whole entry, looked up): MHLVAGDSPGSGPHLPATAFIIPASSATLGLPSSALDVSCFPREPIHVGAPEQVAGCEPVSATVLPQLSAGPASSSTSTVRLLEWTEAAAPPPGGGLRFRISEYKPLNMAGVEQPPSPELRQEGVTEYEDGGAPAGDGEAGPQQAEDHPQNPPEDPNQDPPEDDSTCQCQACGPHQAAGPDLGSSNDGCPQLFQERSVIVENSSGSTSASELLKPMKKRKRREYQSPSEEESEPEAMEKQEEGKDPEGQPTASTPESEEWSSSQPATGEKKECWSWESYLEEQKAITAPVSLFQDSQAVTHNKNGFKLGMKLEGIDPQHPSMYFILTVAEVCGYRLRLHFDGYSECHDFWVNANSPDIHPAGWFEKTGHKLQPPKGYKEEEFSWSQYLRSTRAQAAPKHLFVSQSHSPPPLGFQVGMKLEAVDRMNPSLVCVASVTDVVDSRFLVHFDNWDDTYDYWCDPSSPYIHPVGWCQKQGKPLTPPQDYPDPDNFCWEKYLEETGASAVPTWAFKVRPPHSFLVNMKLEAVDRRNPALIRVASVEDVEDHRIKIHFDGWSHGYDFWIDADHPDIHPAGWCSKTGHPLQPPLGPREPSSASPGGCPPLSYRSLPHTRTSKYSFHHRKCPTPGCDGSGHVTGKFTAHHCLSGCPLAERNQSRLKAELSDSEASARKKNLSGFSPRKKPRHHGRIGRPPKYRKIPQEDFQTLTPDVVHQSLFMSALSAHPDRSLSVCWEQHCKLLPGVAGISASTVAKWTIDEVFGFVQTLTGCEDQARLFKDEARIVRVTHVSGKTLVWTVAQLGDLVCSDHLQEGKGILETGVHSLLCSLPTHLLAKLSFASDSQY

Row | Structure (SMILES) | activity, negative = inhibition | Potency
1 | CCCCn1c2ccc(F)cc2c2nnc(NN)nc21 | inactive: -5.07% | 
2 | O=C1NC(c2cccc(Br)c2)=N/C1=C\c1ccco1 |  | inconclusive: 35.5 µM [inhibitor, single point]
3 | CCOC(=O)/C(=N\Nc1ccccc1[N+](=O)[O-])c1csc(Nc2ccccc2)n1 |  | inconclusive: 39.8 µM [inhibitor, single point]
4 | Cc1ccc(C(=O)OCC(=O)c2ccc(CC(=O)N3CCOCC3)s2)c(C)c1 |  | active: 20 µM
5 | CC1=C(C#N)C(c2cn(-c3ccccc3)nc2-c2cccs2)C(C#N)=C(C)N1 | inactive: -1.21% | 
6 | Fc1ccc(CN2CCCN(Cc3nc(-c4ccc5c(c4)OCO5)no3)CC2)cc1 |  | inconclusive: 22.4 µM [inhibitor, partial curve]
7 | NS(=O)(=O)c1ccc(CCNC(=O)CN2CCCCCC2)cc1 |  | inconclusive: 0.126 µM [inhibitor, full curve, poor fit]
8 | Cn1c(=O)nc2n(Cc3ccccc3)c3ccccc3cc-2c1=O | inactive: -9.48% | 
9 | CCN(CC)S(=O)(=O)c1ccc(/C=C/C(=O)OCC(=O)NCc2ccco2)cc1 |  | inconclusive: 20 µM [inhibitor, single point]
10 | COc1cccc(NC(=O)Cn2c(CCC(=O)O)ccc2-c2ccc(Cl)cc2)c1 | inactive: -19.3% | 
11 | COc1ccc(N2CCN(Cc3nc(-c4ccc(Cl)cc4Cl)no3)CC2)cc1 |  | inconclusive: 39.8 µM [inhibitor, single point]
12 | CCOc1cccc(CNc2ccc(O)cc2)c1OCc1ccc(Cl)cc1Cl |  | inconclusive: 22.4 µM [inhibitor, single point]
13 | COC(=O)Cc1[nH]n(-c2nc3ccccc3s2)c(=O)c1C(C)=Nc1ccc(OC)cc1 |  | inconclusive: 7.94 µM [inhibitor, full curve, poor fit]
14 | CC1=C(C)/C(=N/OC(=O)c2cccc([N+](=O)[O-])c2)C=CC1=O | inactive: -0.487% | 
15 | CCOC(=O)C1=C(O)c2ccccc2C(=O)/C1=C\c1ccc(CC)cc1 |  | inconclusive: 6.31 µM [inhibitor, single point]
16 | Oc1ccc(N=Cc2ccc(O)c(O)c2)cc1 |  | active: 8.91 µM
17 | Nc1ccc2oc(-c3ccccn3)nc2c1 |  | inconclusive: 8.91 µM [inhibitor, single point]
18 | Cc1cc(C)nc(NC(=O)C2c3ccccc3Oc3ccccc32)n1 | inactive: 8.27% | 
19 | O=C1C(NS(=O)(=O)c2ccccc2)=C(N2CCN(c3ccc(F)cc3)CC2)C(=O)c2ccccc21 |  | inconclusive: 28.2 µM [inhibitor, partial curve]
20 | CN(/N=C/c1ccncc1)c1cnc2ccccc2n1 |  | inconclusive: 1.78 µM [inhibitor, full curve]
21 | O=C(NNC(=O)c1cccs1)c1ccc([N+](=O)[O-])cc1 |  | inconclusive: 39.8 µM [inhibitor, single point]
22 | C/C(=N\Nc1cccc(C(=O)O)c1)c1ccc2c(c1)Nc1ccccc1S2 |  | inconclusive: 25.1 µM [inhibitor, single point]
23 | Cc1nc2ccc([N+](=O)[O-])cc2c(=O)n1Cc1cccc(Br)c1 | inactive: -6.45% | 
24 | O=C(O)c1ccccc1C(=O)Nc1ccc(Oc2cccc3ccccc23)cc1 |  | inconclusive: 17.8 µM [inhibitor, partial curve]

Row | Structure (SMILES) | activity, negative = inhibition | Potency
25 | C=CCNC(=O)C1CC(=O)N(c2ccc(OCc3ccccc3Cl)cc2)C1 (stereo unspecified) | inactive: -4.23% | 
26 | Cc1ccc(C)c(SCC(=O)c2ccc[nH]2)c1 |  | inconclusive: 2.24 µM [inhibitor, partial curve]
27 | CCCCc1cc(=O)oc2cc(C)c(CN3CCCC3)c(O)c12 |  | inconclusive: 31.6 µM [inhibitor, single point]
28 | O=C(/C=C/c1ccco1)NCC(=O)N/N=C/c1ccc([N+](=O)[O-])cc1 |  | inconclusive: 39.8 µM [inhibitor, single point]
29 | CCN(CC)c1ccc(N=Cc2ccc([N+](=O)[O-])o2)cc1 |  | inconclusive: 14.1 µM [inhibitor, partial curve]
30 | CCCCNc1c(-c2cccc(-c3cc(C(C)=O)cs3)c2)nc2ccc(C)cn12 |  | inconclusive: 2.82 µM [inhibitor, single point]
31 | C=CCOc1ccc(CN(C)CC(=O)Nc2ccc3c(c2)CCC3)cc1 | inactive: 18.6% | 
32 | O=C(Nn1cnc2ccccc2c1=O)c1ccc([N+](=O)[O-])cc1 |  | inconclusive: 10 µM [inhibitor, partial curve]
33 | COc1ccccc1NS(=O)(=O)c1ccc(NN=C2CCCCC2)c([N+](=O)[O-])c1 |  | inconclusive: 28.2 µM [inhibitor, single point]
34 | N#CCCN(C(=O)COC(=O)Cc1c[nH]c2ccccc12)c1ccccc1 | inactive: -4.23% | 
35 | COC(=O)c1ccc(Cn2cnc3c(sc4nc(N5CCOCC5)c5c(c43)CCCC5)c2=O)o1 |  | inconclusive: 39.8 µM [inhibitor, single point]
36 | O=C(O)/C=C/C(=O)N1Cc2cc3ccccc3nc2C1 |  | inconclusive: 35.5 µM [inhibitor, single point]
37 | C#CCCc1cocc1/C=[N+](\[O-])c1ccc(C(=O)OCC)cc1 |  | inconclusive: 28.2 µM [inhibitor, single point]
38 | Oc1c(Cl)cc(Cl)cc1C=Nc1ccccc1N1CCCC1 | inactive: -15.1% | 
39 | O=C(CN1CCCc2ccccc21)NC(=O)NC1CCCCC1 |  | inconclusive: 39.8 µM [inhibitor, partial curve, poor fit]
40 | Cc1[nH]n(-c2ccccc2)c(=O)c1C(c1ccc(C(=O)O)cc1)c1c(C)[nH]n(-c2ccccc2)c1=O |  | inconclusive: 3.98 µM [inhibitor, partial curve]
41 | CN(C)/C=N/c1sc2c(c1C#N)CCCC2 | inactive: -15.4% | 
42 | CCC(C)/C(C)=N/NC(=O)c1ccc(COc2ccc(Cl)c(C)c2)cc1 (stereo unspecified) | inactive: 0.191% | 
43 | CCn1c(CSc2nnc(-c3ccncc3)n2CCOC)nc2cc(C(=O)O)ccc21 | inactive: 5.69% | 
44 | Cc1cc(/C=N/NC(N)=S)c(O)c(/C=N/NC(N)=S)c1 |  | inconclusive: 4.47 µM [inhibitor, partial curve, poor fit]
45 | O=C(NC1CCN(S(=O)(=O)c2ccc(F)cc2)CC1)c1cccc(F)c1 | inactive: -3.9% | 
46 | CCOC(=O)c1cc([N+](=O)[O-])sc1NC(=O)CC | inactive: -6.7% | 
47 | Cc1ccccc1C(=O)NC(=S)Nc1ccccc1N1CCCC1 |  | inconclusive: 0.112 µM [inhibitor, full curve, poor fit]
48 | Clc1ccc(/C(Cc2nc3ccccc3[nH]2)=N\Nc2ccccc2)cc1 |  | inconclusive: 31.6 µM [inhibitor, partial curve]

Row | Structure (SMILES) | activity, negative = inhibition | Potency
49 | Cc1cc(C)nc(N/N=C/c2sccc2C)n1 | inactive: -5.87% [at 11.4 µM] | 
50 | Fc1ccc(CNc2ccccn2)cc1 | inactive: 10.5% | 
51 | O=C1c2ccccc2C(=O)c2c1cccc2N1CCOCC1 |  | inconclusive: 22.4 µM [inhibitor, partial curve]
52 | CCc1ccc(C2c3[nH]c4ccccc4c3CCN2C(=O)c2cc(C)nn2C)cc1 (stereo unspecified) |  | inconclusive: 31.6 µM [inhibitor, single point]
53 | O=C(NCCCn1ccnc1)/C(=C/c1cccnc1)NC(=O)c1ccco1 |  | inconclusive: 15.8 µM [inhibitor, partial curve]
54 | O=C(O)c1ccc(O)c(O)c1 |  | inconclusive: 39.8 µM [inhibitor, partial curve, poor fit]
55 | Cc1cccc(OCC(=O)Nc2ccc(N3CCN(S(C)(=O)=O)CC3)cc2)c1 |  | inconclusive: 6.31 µM [inhibitor, single point]
56 | O=[N+]([O-])c1cc(CN2CCCC2)c2cccnc2c1O |  | active: 3.98 µM
57 | COc1cc(C2C(C#N)=C(N)Oc3cc(C)oc(=O)c32)cc(OC)c1OC (stereo unspecified) | inactive: 6.1% | 
58 | COC(CC(=O)NNC(=S)Nc1ccccc1)OC | inactive: 10.7% | 
59 | O=C(NNC(=S)Nc1cccc(C(F)(F)F)c1)c1cccc(Cl)c1 | inactive: 1.86% | 
60 | Cn1cccc1C(=O)OCc1cc(-c2ccco2)on1 |  | inconclusive: 35.5 µM [inhibitor, single point]
61 | O=C(CN1C(=O)/C(=C2/SC(=S)N(CCS(=O)(=O)O)C2=O)c2ccccc21)Nc1cccc(Br)c1 | inactive: -10.2% | 
62 | Oc1ccc(/C=N/NC(=S)Nc2cccnc2)c(O)c1 |  | active: 8.91 µM
63 | Cc1ccc(C)n1Cc1ccc(C(=O)O)cc1 |  | inconclusive: 3.16 µM [inhibitor, single point]
64 | Cc1ccc(C)c(-n2c(SCC(N)=O)nnc2-c2ccccn2)c1 |  | inconclusive: 31.6 µM [inhibitor, single point]
65 | O=C(COC(=O)Cc1ccc(Cl)cc1Cl)Nc1ccccc1OC(F)F |  | inconclusive: 6.31 µM [inhibitor, single point]
66 | C=CCn1c(NC(=O)c2ccccc2Cl)c(C#N)c2nc3ccccc3nc21 |  | inconclusive: 8.91 µM [inhibitor, partial curve]
67 | O=C(CN1C(=O)S/C(=C\C=C\c2ccccc2)C1=O)Nc1ccc(C(=O)O)cc1 |  | inconclusive: 31.6 µM [inhibitor, single point]
68 | COc1ccc(C2c3c(-c4ccccc4O)n[nH]c3C(=O)N2Cc2ccco2)cc1OC (stereo unspecified) |  | inconclusive: 35.5 µM [inhibitor, partial curve]
69 | COc1ccc(NC2=C(NCCO)C(=O)c3ccccc3C2=O)cc1 |  | inconclusive: 39.8 µM [inhibitor, single point]
70 | COc1ccc(-c2nc(N/N=C(\C)c3ccc(O)cc3)c3ccccc3n2)cc1 |  | inconclusive: 17.8 µM [inhibitor, partial curve]
71 | COc1ccc(-n2cc(-c3ccc(Br)cc3)[nH]c2=S)cc1 |  | inconclusive: 6.31 µM [inhibitor, single point]
